The whole screen tested about 410,000 compounds, of which about 6,400 (1.6%) were called active. This list was built around the results that the source calls inconclusive (neither active nor inactive); the mix of calls is not that of the screen. Calls come from the whole dose curve; as a rule, active = well fitted inhibition curve with a large enough effect; inconclusive = small, poorly fitted or top-dose-only effect; inactive = no such curve, though single readings can be large or run the other way. A potency beside an inconclusive call is a rough fit, not a confirmed value.
What follows are compounds tested against Glucagon-like peptide 1 receptor (Homo sapiens) (UniProt P43220) (assay: qHTS of GLP-1 Receptor Inverse Agonists (Inhibition Mode)). Details: HEK293 GLP-1R CRE-luciferase, luminescence, 24 h, GLP-1R form is constitutively active; series mostly up to 38.3 µM.
Chain of UniProt P43220 (P43220 whole entry, looked up): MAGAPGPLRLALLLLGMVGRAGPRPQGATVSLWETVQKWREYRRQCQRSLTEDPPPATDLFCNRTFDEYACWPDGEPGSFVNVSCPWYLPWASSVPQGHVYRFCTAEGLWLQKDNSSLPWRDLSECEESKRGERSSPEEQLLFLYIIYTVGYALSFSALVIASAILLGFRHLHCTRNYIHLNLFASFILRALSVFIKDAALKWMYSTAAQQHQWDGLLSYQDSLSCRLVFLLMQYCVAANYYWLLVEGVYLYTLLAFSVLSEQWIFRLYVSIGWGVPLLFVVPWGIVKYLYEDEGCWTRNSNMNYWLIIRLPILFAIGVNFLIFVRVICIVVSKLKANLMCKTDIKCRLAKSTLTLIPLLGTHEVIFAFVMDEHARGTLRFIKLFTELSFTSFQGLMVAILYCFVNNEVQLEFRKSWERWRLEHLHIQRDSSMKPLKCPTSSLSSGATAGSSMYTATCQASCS
Procedure, shortened: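 Readout was luciferase luminescence, measured 12 min after detection reagent at room temperature. Beforehand, GLP-1R reporter HEK293 cells had sat 12 h, then received compounds for 24 hr at 37 deg C.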
Note: nearly all actives have a fitted effect of over 55% in size.
Potency is the fitted concentration of half-maximal effect; tags give direction and shape of the fitted curve.

Potency, inconclusive:
O=C(NCC(c1ccco1)N1CCc2ccccc2C1)c1ccc(Cl)c([N+](=O)[O-])c1 (centres undefined) 28.2 µM [inhibitor, single point], Cc1ccc(O)c(NC(=S)NC(=O)c2ccc(-c3ccc(Cl)cc3)o2)c1 28.2 µM [inhibitor, single point], CCCCCn1c(-c2cccc(C)c2)nc2ccccc21 11.2 µM [inhibitor, single point], CN(C)C1(CNC(=O)COc2ccc(C(C)(C)C)cc2)CCCCC1 10 µM [inhibitor, single point], Cc1ccc(S(=O)(=O)NCCC(=O)NCCSc2ccc(Br)cc2)cc1 12.6 µM [inhibitor, single point], CSc1cccc(NC(=O)C2CCCN(S(=O)(=O)c3ccc(F)cc3)C2)c1 (centres undefined) 6.31 µM [inhibitor, partial curve, poor fit], C=CCC1(CC=C)CCCN1C(=O)C1CCC(=O)N(Cc2ccc(Cl)cc2)C1 (centres undefined) 20 µM [inhibitor, single point], C[C@]12C(=O)N(c3ccccc3)C(=O)N1[C@@H]1c3ccccc3OC[C@@H]1[C@H]2c1ccccc1 8.91 µM [inhibitor, partial curve, poor fit], O=C(NC1CCN(Cc2ccccc2)CC1)c1cc(S(=O)(=O)Nc2ccc(F)cc2)ccc1Cl 10 µM [inhibitor, partial curve, poor fit], O=C(c1cc(-c2ccc(F)cc2)on1)N1CCCCCC1 11.2 µM [inhibitor, partial curve, poor fit], CCCCCn1c(CNC(=O)c2ccc(F)cc2)nc2ccccc21 11.2 µM [inhibitor, partial curve, poor fit], O=C(Cn1nnc2c(cnn2-c2ccccc2)c1=O)N1CCN(c2ccccc2F)CC1 8.91 µM [inhibitor, partial curve, poor fit], CCS(=O)(=O)c1cccc(C(=O)N2CCN(c3nc4c(C)ccc(Cl)c4s3)CC2)c1 10 µM [inhibitor, partial curve, poor fit], N#Cc1ccc(CSc2ncnc3c2cnn3Cc2ccccc2)cc1 7.08 µM [inhibitor, partial curve, poor fit], COc1ccc(NS(=O)(=O)c2ccc(NC(=S)NC(=O)C(C)C)cc2)cc1 12.6 µM [inhibitor, single point], CN(C(=O)Cn1ncc2c1-c1ccccc1OC2)c1ccc(Br)cc1 28.2 µM [inhibitor, single point], Cc1[nH]n(-c2ccccc2)c(=O)c1/C=N/NC(=O)COc1ccccc1[N+](=O)[O-] 10 µM [inhibitor, single point], O=C(Nc1nc2ccccc2[nH]1)c1cccc(Br)c1 8.91 µM [inhibitor, partial curve, poor fit], O=C(COc1cccc(Br)c1)N/N=C/C(=O)c1ccccc1 10 µM [inhibitor, partial curve, poor fit], Cc1ccc(F)cc1C(=O)N1CCCCC1c1cc(C(=O)Nc2ccc(F)c(Cl)c2)no1 (centres undefined) 12.6 µM [inhibitor, partial curve, poor fit], O=C(Nc1cccc(O)c1)c1ccc(NC(=O)c2cccs2)cc1 7.08 µM [inhibitor, partial curve, poor fit], CCC1([N+](=O)[O-])COC(c2ccc(C(C)C)cc2)OC1 (centres undefined) 22.4 µM [inhibitor, single point], COc1cc(OC)c(NC(=O)NCc2cccn2Cc2ccccc2)cc1Cl 28.2 µM [inhibitor, single point], Cc1c(NC(=S)NC(=O)C(C)(C)C)cccc1[N+](=O)[O-] 31.6 µM [inhibitor, partial curve, poor fit], Cc1ccc(S(=O)(=O)N2c3ccccc3OCC2c2ccccc2)cc1 (centres undefined) 11.2 µM [inhibitor, partial curve, poor fit], CCN(c1ccccc1)S(=O)(=O)c1ccc(C(=O)Nc2cccc(NC(C)=O)c2)cc1 20 µM [inhibitor, single point], CCOC(=O)c1c(CN(C)C)n(-c2ccccc2)c2cc(Br)c(O)cc12 20 µM [inhibitor, single point], CCN(c1ccccc1)S(=O)(=O)c1ccc(C(=O)N(CCCN(C)C)c2nc3c(C)cccc3s2)cc1 7.94 µM [inhibitor, partial curve, poor fit], CCOc1cc(CNc2cccc3[nH]c(C)nc23)ccc1OC 28.2 µM [inhibitor, single point], CCOC(=O)c1c(NC(=O)C(=O)N/N=C/c2ccccc2O)sc2c1CCCCC2 28.2 µM [inhibitor, single point]

Potency, inactive:
Cc1cc(C)cc(-n2ccnc(NCc3ccc(F)cc3)c2=O)c1, O=C(OCc1nc2scc(-c3ccccc3)c2c(=O)[nH]1)c1cc(Cl)ccc1[N+](=O)[O-], Cc1ccccc1OCC(=O)N/N=C/c1ccc(N(C)C)cc1, C=C(C)COc1cc2oc(=O)c(CC(=O)N3C[C@H]4C[C@@H](C3)c3cccc(=O)n3C4)c(C)c2cc1Cl, CC(C)CC(NC(=O)C1CCCCC1)C(=O)N1CCN(c2ccccn2)CC1 (centres undefined), O=C(OCc1cn([C@@H]2CN(C(=O)C3CCCCC3)[C@@H](c3ccccc3)C[C@H]2O)nn1)c1ccccc1, CCc1ccc(-n2nc(C)c3c(C(=O)N4CCN(c5cccc(Cl)c5)CC4)cc(C)nc32)cc1

Potency, active:
CCOC(=O)c1ccc(NC(=O)CCc2c(C)nc3c(c(C)nn3C(C)(C)C)c2C)cc1 7.94 µM, CC(C)(C)CC(C)(C)NCC(O)COc1ccc2c(c1)CCC2 (centres undefined) 10 µM
